# Source: PubChem BioAssay AID1347120 (National Center for Advancing Translational Sciences (NCATS), 2019)
# Among all 390,000 compounds or so, about 930 (0.24%) were called active. This list was built around the results that the source calls inconclusive (neither active nor inactive); the mix of calls is not that of the screen. The call rests on the fitted dose curve; in most records, active means well fitted activation curve with a large enough effect; inconclusive means small, poorly fitted or top-dose-only effect; inactive means no such curve, though single readings can be large or run the other way. Potencies beside an inconclusive call are fits to weak or partial responses and may not hold up.
# Test: qHTS for Suppressors of FUS Proteinopathy: Primary screen using FUS-linked yeast assay; further: nearly all actives have a fitted effect of over 55% in size;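 on growth rescue (activation): plate controls were DMSO vehicle for no effect and reference control for full effect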
# Conditions: S. cerevisiae FUS-expressing, OD600, 24 h; Potency: growth rescue; growth rescue (activation): at 76.6 µM (top of the series)
# How it was run: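 Galactose (2%) drives FUS expression in yeast precultured in raffinose; seeding density OD 0.005. Test compounds incubated 24hr at 30C and 99% humidity before absorbance at 600 nm was measured.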
# Potency means the concentration at half of the fitted maximal effect; tags describe the fitted curve by direction and shape.
Structure (SMILES),Potency,growth rescue (activation)
Cc1ccc(C)c2c1[nH]c1ccccc12,inactive,
COc1cc(OC)c(C=CC(=O)c2ccccc2O)c(OC)c1,inactive,
O=C(CCCSc1nnc(SCCCC(=O)c2ccc(F)cc2)s1)c1ccc(F)cc1,inactive,
CCN1C(=O)S/C(=C/c2cn(C)c3ccccc23)C1=O,inactive,
CC(C)N(C)c1ncnc2c1ncn2[C@H]1CN(Cc2cccs2)C[C@@H](CO)O1,inactive,
Cc1ccc(C)c(CN2C(=O)c3ccccc3S(=O)(=O)c3ccc(C(=O)NCCc4ccc(Cl)cc4)cc32)c1,"inconclusive: 20 µM [activator, partial curve, poor fit]",
Cc1ccc(-n2nc(C)c3c(C)cc(=O)n(CC(=O)Nc4cc(Cl)ccc4C)c32)cc1,inactive,
COc1ccc(-n2c(=O)c(CCC(=O)N3CCC(C)CC3)nc3ccccc32)cc1,"inconclusive: 31.6 µM [activator, single point]",
Cc1cccn2c(=O)cc(COc3ccc(NC(=O)C(C)C)cc3)nc12,inactive,
COC(=O)[C@]12C[C@H](CC(=O)NCc3ccccc3)C(=O)N(Cc3ccco3)C1=C[C@H](C1CCCC1)O[C@@H]2C,"inconclusive: 17.8 µM [activator, partial curve, poor fit]",
COC(=O)c1sccc1S(=O)(=O)N(CC(=O)Nc1ccccc1C)c1ccc(Cl)cc1,active: 31.6 µM,
Nc1cc(-c2cccc([N+](=O)[O-])c2)[nH]n1,"inconclusive: 50.1 µM [activator, single point]",
Cc1ccc(CN2CCC[C@]3(N[C@H](c4ccc(C(F)(F)F)cc4)[C@@H]4C(=O)N(C)C(=O)[C@@H]43)C2=O)cc1,"inconclusive: 31.6 µM [activator, single point]",
N#CC1=C(N)N(c2ccc(Br)cc2)C2=C(C(=O)CCC2)C1c1cccnc1 (stereo unspecified),"inconclusive: 39.8 µM [activator, partial curve, poor fit]",
COc1ccccc1NC(=O)Nc1nc(C(N)C2CCCCC2)cs1 (stereo unspecified),"inconclusive: 31.6 µM [activator, single point]",
COc1ccc(C2(c3ccc(OC)cc3)NC(=O)N(CC(=O)Nc3ccc(OC(F)F)cc3)C2=O)cc1,"inconclusive: 17.8 µM [activator, partial curve, poor fit]",
Cc1ccc(OCc2ccccc2C)c([N+](=O)[O-])n1,inactive,
CN(Cc1ccccc1)c1c([N+](=O)[O-])c(=O)n(C)c2ccccc12,"inconclusive: 50.1 µM [activator, single point]",
COC/C=C/C1=CC2=CC(=O)C(C)(OC(=O)c3cnc4ccccc4n3)C(=O)C2=CN1C1CC1 (stereo unspecified),"inconclusive: 15.8 µM [activator, partial curve, poor fit]",
COc1cc(-c2nnc3sc(C4CCCCC4)nn23)cc(OC)c1OC,"inconclusive: 56.2 µM [activator, partial curve, poor fit]",
CC(C/C=N/NC(=O)COc1cc(Cl)ccc1Cl)c1ccccc1 (stereo unspecified),inactive,

Structure (SMILES),Potency,growth rescue (activation)
COc1ccc(-c2csc(N3CCN(c4cc5c(cc4Cl)nc(-c4ccncc4)n5CCOCCO)CC3)n2)cc1,"inconclusive: 50.1 µM [activator, single point]",
Cc1ccc2cc(C)c3nnc(SCC(=O)Nc4nc5c(s4)CCCC5)n3c2c1C,"inconclusive: 44.7 µM [activator, single point]",
COC(=O)[C@@]12C[C@@H](CC(=O)NCc3ccc(C)o3)C(=O)N(Cc3ccc4c(c3)OCO4)C1=CCC(C)(C)C2,"inconclusive: 17.8 µM [activator, single point]",
Cc1nn(Cc2ccc(Cl)cc2)c(C)c1NC(=O)c1cc(-c2ccco2)on1,"inconclusive: 14.1 µM [activator, partial curve]",
Cn1cc(S(=O)(=O)N2CCCCCC2)cc1C(=O)N1CCN(c2ccccc2F)CC1,inactive,
CCc1ccc(NC(=O)CN2C(=O)C3CCCN3c3ccc(S(=O)(=O)N(CC)CC)cc32)cc1 (stereo unspecified),"inconclusive: 50.1 µM [activator, single point]",
CCN(CC(=O)NCc1cccs1)C(=O)c1ccc(-c2cccc(C(F)(F)F)c2)o1,"inconclusive: 31.6 µM [activator, single point]",
CC(C)C[C@H](NC(=O)c1nc[nH]c1C(=O)N1CCN(c2ccccc2)CC1)C(=O)OC(C)(C)C,"inconclusive: 25.1 µM [activator, single point]",
O=[N+]([O-])c1cccc(OCCCN2CCC(C(O)(c3ccccc3)c3ccccc3)CC2)c1,inactive,
Cn1cc(C(=O)O)c(=O)c2cc(S(=O)(=O)N3CCOCC3)ccc21,inactive,
COc1cc2c(cc1OC)C(c1ccc(Cl)cc1)N(c1cccc(C#N)c1)C(=O)C2 (stereo unspecified),"inconclusive: 28.2 µM [activator, single point]",
COc1ccccc1-c1nnc(C2CCN(S(=O)(=O)c3ccc(CC(C)C)cc3)CC2)o1,"inconclusive: 17.8 µM [activator, partial curve]",
Cc1ccc(S(=O)(=O)CC(=O)Nc2sc(C)c(C)c2C(N)=O)cc1,"inconclusive: 50.1 µM [activator, single point]",
CCCCc1c(C)c(C#N)c2nc3ccccc3n2c1Nc1c(C)n(C)n(-c2ccccc2)c1=O,"inconclusive: 31.6 µM [activator, partial curve, poor fit]",
CC(C)C(=O)Nc1ccc(C(=O)NNC(=S)NC(=O)c2ccccc2[N+](=O)[O-])cc1,"inconclusive: 17.8 µM [activator, partial curve]",
CC(=O)Nc1cc(-c2cccc(C(=O)NCCO)c2)cn2c(-c3ccc(F)c(Cl)c3)cnc12,"inconclusive: 31.6 µM [activator, single point]",
C[C@H](CO)N1C[C@H](C)[C@@H](CN(C)S(=O)(=O)c2ccccc2)Oc2ccc(NC(=O)NC3CCCCC3)cc2C1=O,"inconclusive: 20 µM [activator, single point]",
CCCCn1c(SCc2ncc(-c3ccccc3)o2)nc2cc(S(N)(=O)=O)ccc21,"inconclusive: 31.6 µM [activator, single point]",
COc1ccc(C2Nc3ccccc3C(=O)N2Cc2ccc(C)o2)cc1COc1c(C)cccc1C (stereo unspecified),"inconclusive: 11.2 µM [activator, partial curve, poor fit]",
COc1ccc(N(C(=O)c2cccc(C)c2)S(=O)(=O)c2ccc3c(c2)n(C)c(=O)n3C)cc1,"inconclusive: 35.5 µM [activator, single point]",
Cc1ccc(NC(=O)Nc2cccs2)c(C)c1,inactive,

Structure (SMILES),Potency,growth rescue (activation)
O=C(CSc1cccc2cccc(Cl)c12)OCC(=O)N1CCN(C(=O)c2ccco2)CC1,,inconclusive: 96% [activator]
CN(CCCOC(=O)c1occ2ccccc12)C1CN(Cc2cn(Cc3ccccc3Cl)nn2)S(=O)(=O)C1 (stereo unspecified),inactive,
COc1ccc2cc(/C=N/O)c(Cl)nc2c1,inactive,
O=C1c2ccccc2C(Nc2ccc(S(=O)(=O)N3CCCCC3)cc2)N1Cc1ccco1 (stereo unspecified),"inconclusive: 31.6 µM [activator, single point]",
CCOC(=O)c1cc(C)n(Cc2cccc(OC)c2OC)c1C,inactive,
CCC(=O)N1CCCc2cc(S(=O)(=O)N3CCC(C(=O)Nc4cccc(Cl)c4)CC3)ccc21,"inconclusive: 39.8 µM [activator, single point]",
O=C(Nc1cccc(Cl)c1Cl)c1cc(S(=O)(=O)N2CCCc3ccccc32)ccc1F,"inconclusive: 28.2 µM [activator, partial curve, poor fit]",
COc1cc(OC)c(N(C)C(=O)CSc2c3c(nc4ccc(Cl)cc24)CCCC3)cc1Cl,"inconclusive: 39.8 µM [activator, partial curve, poor fit]",
CCCCCCc1ccc(-c2ncc(N)cn2)cc1,"inconclusive: 31.6 µM [activator, single point]",
CCc1ccc(NC(=O)CC2C(=O)N(c3ccc(OC)cc3)C(=O)N2Cc2cccs2)cc1 (stereo unspecified),inactive,
Cc1c(C(=O)Nc2nc(-c3ccccn3)cs2)oc2ccccc12,"inconclusive: 31.6 µM [activator, partial curve, poor fit]",
Clc1ccc(-n2c(SCc3cccc4ccccc34)nnc2-c2ccccn2)cc1,"inconclusive: 31.6 µM [activator, partial curve, poor fit]",
CC=Cc1cc(OC)c2c(c1)C(C)C(c1ccc(O)c(OC)c1)O2 (stereo unspecified),"inconclusive: 50.1 µM [activator, single point]",
O=C(CSc1nc2ccsc2c(=O)n1Cc1ccccc1F)NCc1ccccc1Cl,inactive,
CC(=O)N1CCc2cc(S(=O)(=O)NC(Cc3ccccc3)C(=O)Nc3ccc(C)cc3C)ccc21 (stereo unspecified),inactive,
C[C@H](CO)N1C[C@H](C)[C@@H](CN(C)C(=O)Nc2ccc(C(F)(F)F)cc2)Oc2c(NC(=O)C3CCCCC3)cccc2C1=O,"inconclusive: 22.4 µM [activator, single point]",
O=C(Nc1ccccc1N1CCN(C(=O)c2ccc(Cl)cc2)CC1)c1cc(Br)ccc1Cl,"inconclusive: 2.51 µM [activator, full curve, poor fit]",
CC1=C(C(=O)N(C(C)C)C(C)C)CC(CC(=O)NC2CCCCC2)C(=O)N1Cc1ccc(C(C)(C)C)cc1 (stereo unspecified),"inconclusive: 35.5 µM [activator, partial curve, poor fit]",
CCOc1ccc(-n2c(C)cc(/C=N/Nc3nc(C)cc(=O)[nH]3)c2C)cc1,"inconclusive: 25.1 µM [activator, partial curve]",
